# Several values for one entry are separate records, joined by “and”; a condition that tells them apart may be missing. Identical values can stand only once.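 96-well plates; 48 h exposure; 5 concentrations. Endpoints by linear interpolation between flanking doses. Not reached: highest tested concentration assigned. GI50: concentration for 50% inhibition of growth. At the TGI there is no net growth.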
# Tested on: NCI-H322M lung
# Assay: inhibition of tumour cell growth, NCI panel, 48 h
SMILES,TGI,GI50 [µM]
Cc1ccc(C(C)C)c(OCC(=O)N/N=C/c2c[nH]c3ccc(Br)cc23)c1,8.29 µM,
CC(C)OC(=O)C1(C(C)C)CCc2ccc(C(=O)CCC(=O)O)cc21 (configuration not stated),> 100 µM,
Cc1cc2c(nn1)CCc1c-2no[n+]1[O-],> 100 µM,
CC(C)[C@@H]1CC[C@@H](C)C[C@H]1OC(=O)/C=C1\C(C(=O)O[C@@H]2C[C@H](C)CC[C@H]2C(C)C)[C@H]2C=C[C@@H]1O2 (some centres not stated),> 100 µM,
c1ccc2c(c1)SCCc1cn[nH]c1-2,> 100 µM,
CC(=O)[CH-]C(=O)c1ccccc1.CC(=O)[CH-]C(=O)c1ccccc1.CC[C@H](/C=C/C(C)[C@H]1CCC2[C@@H]3CC=C4C[C@@H]([O-])CC[C@]4(C)C3CC[C@@]21C)C(C)C.CC[C@H](/C=C/C(C)[C@H]1CCC2[C@@H]3CC=C4C[C@@H]([O-])CC[C@]4(C)C3CC[C@@]21C)C(C)C.Cl.[Ti+4] (some centres not stated),> 25 µM,> 25
NC(=O)C(=O)C1C(=O)N(c2ccccc2)N=C1N (configuration not stated),> 100 µM,
CN(C)c1cccc(OC(=O)NCCCl)c1,> 100 µM,
Oc1ccc(Cl)cc1Sc1cc(Cl)ccc1O,50.5 µM and 32.7 µM,14.1
CCOC(=O)c1c(N2CCOCC2)ncn(-c2cccc(Cl)c2)c1=O,> 100 µM,
C=C1C(=O)O[C@H]2[C@H]1CC/C(COC(=O)CCCCCCCC(=O)OC/C1=C/CC[C@@]3(C)O[C@H]3[C@H]3OC(=O)C(=C)[C@@H]3CC1)=C\CC[C@@]1(C)O[C@@H]21,22.1 µM,10.2
O=C(NNc1ccccc1)c1ccc(Cl)c(Cl)c1,> 94.5 µM,
CC(C)N1C(C)[C@@H](c2ccccc2)O[P@@]1(=O)CC1=CCCCC1 (some centres not stated),> 100 µM,
CC(C)(C)C1=CC(=C2C=Cc3cc(O)ccc3O2)C=C(C(C)(C)C)C1=O,3.6 µM,
COc1ccc(NC(=O)c2oc3cc(O)ccc3c(=O)c2C)c([N+](=O)[O-])c1,> 100 µM,
CC(C)(C)[Si](C)(C)OCCc1ccccc1C1CC2(S(=O)(=O)c3ccccc3)ON1CC2S(=O)(=O)c1ccccc1 (configuration not stated),> 100 µM,
CSC1(C(=O)O)C2CCC3C2CCC31 (configuration not stated),> 100 µM,
COC1(OC)N=C(N)C2(C#N)C(C)=C3NCN(C)N=C3C12C#N (configuration not stated),> 100 µM,
S=c1[nH]n2c(COc3ccc(Cl)cc3)nnc2s1,> 100 µM,
CC(=O)O[C@@H]1C2=C(C)C3(CC3)[C@@](C)(O)C(=O)C2=C[C@@]1(C)CO,7 µM,1.87
Cc1ccc(C)n2c1nc1cc3ccccc3cc12,> 100 µM,
O=C(O/N=c1/ccc(=O)/c(=N\OC(=O)c2ccccc2)c1=O)c1ccccc1,> 100 µM,
CN(C)CCNC(=O)c1cccc2c1Oc1cccc([N+](=O)[O-])c1O2,31.3 µM,

SMILES,TGI,GI50 [µM]
COC(=O)C(=O)C(C(C)=O)C(=O)NCc1ccccc1 (configuration not stated),> 100 µM,
O=[N+]([O-])C(C(Cl)=C(Cl)Cl)=C(n1nnc2ccccc21)n1nnc2ccccc21,> 69 µM,
CC(=O)OC1CC(OC2C(O)CC(OC3C(O)CC(OC4CCC5(C)C(CCC6C5CCC5(C)C(C7=CC(=O)OC7)CCC65O)C4)OC3C)OC2C)OC(C)C1OC1OC(CO)C(O)C(O)C1O (configuration not stated),0.133 µM,
CC(C)c1[nH]nc2c(NCc3ccc(-c4ccccn4)cc3)nc(SCCN)nc12,11.4 µM,0.0205
O=C(O)/C(Cl)=C(Cl)/C=N/NC(=O)c1cc2ccccc2cc1O,> 100 µM,
COc1ccc(/C=C\c2cc(OC)c(OC)c(OC)c2)cc1OC(=O)CC(N)C(=O)O (configuration not stated),> 100 µM,0.0034
COc1cc2c3cc1Oc1c(OC)c(OC)cc4c1[C@@H](Cc1ccc(O)c(c1)Oc1ccc(cc1)C[C@@H]3N(C)CC2)N(C)CC4,50.6 µM,
COC(=O)c1c2c(c(C)[n+]([O-])c1C)C(=O)C(NCc1ccc(F)cc1)=CC2=O,4.72 µM,1.51
COc1cc(C2c3cc4c(cc3[C@@H](Nc3ccc([N+](=O)[O-])cc3)C3COC(=O)[C@H]23)OCO4)cc(OC)c1O (some centres not stated),56.1 µM,
C[C@H](CCC(=O)NCCS(=O)(=O)O)[C@H]1CC[C@H]2[C@@H]3[C@H](O)C[C@@H]4C[C@H](O)CC[C@]4(C)[C@H]3CC[C@]12C,> 100 µM,
Cc1ccc2c(=O)c(-c3nnc(NC4CCCCC4)s3)c[nH]c2n1,> 100 µM,
CCCS(=O)c1nc(COC(=O)NC)c(COC(=O)NC)n1C (configuration not stated),> 100 µM,
COc1ccc(CCc2ccc3c(c2)OCO3)cc1,> 100 µM,
Cc1ccnc2c(NC(C)CCCN)cc(O)c(O)c12 (configuration not stated),> 100 µM,28.5
Nc1ccc(Cn2ccc3c4c(N)nc(N)nc4ccc32)cc1,16.4 µM,
O=C1N/C(=N\N=C\c2ccccc2)C2(CCCCC2)O1,> 100 µM,
Cc1ccc2c(n1)NC(=O)C(Cc1ccccc1)(N=[N+]=[N-])C2=O (configuration not stated),> 100 µM,
COc1ccc2c(C)cc(N/N=C/c3ccc(C)s3)nc2c1,24.5 µM,
COc1ccc2cc(CN3CCC(C4CCN(Cc5ccc6cc(OC)ccc6c5)CC4)CC3)ccc2c1,10.1 µM,
O=C(NCCCl)Nc1ccccc1,> 100 µM,
CN1C(=O)[C@H](c2c[nH]c3ccccc23)[C@H](c2c[nH]c3ccccc23)C1=O,> 100 µM,
O=C(NCc1ccco1)C1CCN(S(=O)(=O)c2ccc(Cl)cc2)CC1,> 100 µM,> 100
CCOC(=O)N/N=C(\CC)NO,> 100 µM,

SMILES,TGI,GI50 [µM]
O=c1[nH]nc(-c2ccccc2)n1-c1cccc([N+](=O)[O-])c1,> 100 µM,
COCCNCc1ccc(-c2cc3nccc(Oc4ccc(NC(=O)C5(C(=O)Nc6ccc(F)cc6)CC5)cc4F)c3s2)nc1,4.93 µM,2.04
CN(CCCN1C(=O)c2cccc3cc([N+](=O)[O-])cc(c23)C1=O)CCN(C)CCCN1C(=O)c2cccc3cc([N+](=O)[O-])cc(c23)C1=O,> 39.3 µM,
C/C(O)=C(\C=NC(=S)c1cccnc1)C(=O)Nc1ccccc1C,> 100 µM,
CCN(CC)S(=O)(=O)c1cccc(-c2ccc3c(NC(=O)C4CC4)n[nH]c3c2)c1,> 6.25 µM,4.81
Cc1cc2c3c([n+](C)c4ccc(F)cc4c3c1)-c1cc(F)ccc1N2C,> 100 µM,29.1
CCCCCCc1cc2cc(-c3cn4c(n3)sc3ccccc34)c(=O)oc2cc1O,> 100 µM,
C=CCSC1=N/C(=C\c2ccc(OC)cc2)C(=O)N1CC=C,> 100 µM,
CC(NP(=O)(c1ccccc1)c1ccccc1)c1ccccc1 (configuration not stated),> 100 µM,
COc1ccc(/C=C2\COc3ccc(O)c(O)c3C2=O)cc1OC,34.1 µM,2.65
COC(=O)c1ccc(NC(=O)c2ccc(NC3=C(Cl)C(=O)N(Cc4ccccc4)C3=O)cc2)cc1,60.4 µM,22.1
CCCCCCCCC(C)CCCCCCCCC(=O)OCC(COP(=O)([O-])OCC[N+](C)(C)C)OC(=O)CCCCCCCCC(C)CCCCCCCC (configuration not stated),> 100 µM,
CCOC(=O)/C(C#N)=C\Sc1ccccc1,> 100 µM,
C[C@]12Cc3conc3C(O)=C1CC[C@@H]1C2CC[C@@]2(C)C1CC[C@]2(C)O (some centres not stated),> 100 µM,
Cn1c2c(c3ccccc3c1=O)C(=O)c1ccccc1-2,> 100 µM,
CCCCSc1nc(N)c2cn[nH]c2n1,> 69.6 µM,4.29
CCOC(=O)C1=C(O)C(=O)c2ccoc2C1=O,> 100 µM,
C(=C\c1ccncc1)/c1ccncc1,> 100 µM,> 100
CC1(C2COC(=O)C2)SCCCS1 (configuration not stated),> 100 µM,
Cc1cc(Cl)nc(N(CCCNc2ccnc3cc(Cl)ccc23)Cc2cccs2)n1,9.84 µM,1.62
CN(C)N=Nc1cccc(C(N)=O)c1,> 100 µM,
O=C1C=C(NCC(c2ccccc2)c2ccccc2)C(=O)c2ncccc21,8.1 µM,
Cc1ccc(-c2c3c(nn2-c2ccc(S(=O)(=O)NC(=O)NC4CCCCC4)cc2)-c2ccccc2C3)cc1,18.6 µM,4.24
